The full ranking holds about 2,700 sequences; the median of “arbitrary fluorescence units” is about 4,100, and the highest 2% start at about 54,000. Some of the results follow.
These sequences were tested against T1, ETS1 (UniProt P14921) (assay: ETS1 binding intensity (PBM fluorescence) (arbitrary fluorescence units); higher = stronger binding). Conditions: ETS1 concentration 10 nM.
T1 sequence: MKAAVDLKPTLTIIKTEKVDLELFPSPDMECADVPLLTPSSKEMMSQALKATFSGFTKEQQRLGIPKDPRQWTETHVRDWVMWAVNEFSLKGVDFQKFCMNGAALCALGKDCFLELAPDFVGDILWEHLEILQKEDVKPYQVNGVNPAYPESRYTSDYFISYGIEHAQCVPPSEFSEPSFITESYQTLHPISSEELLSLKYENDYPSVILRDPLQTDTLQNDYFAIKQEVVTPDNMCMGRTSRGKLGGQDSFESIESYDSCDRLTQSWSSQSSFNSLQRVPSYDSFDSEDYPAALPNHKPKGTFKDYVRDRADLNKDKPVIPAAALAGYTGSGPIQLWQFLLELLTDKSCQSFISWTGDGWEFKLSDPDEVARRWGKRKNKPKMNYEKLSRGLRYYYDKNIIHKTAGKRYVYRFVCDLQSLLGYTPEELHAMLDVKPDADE
Description: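 gcPBM on wild-type 36-bp genomic probes with two neighbouring ETS1 sites (4-24 bp apart). Recombinant human ETS1 (10 nM) was detected with anti-ETS1 antibody fluorescence. Values are medians over 3 replicate spots. The probes sit in constant array flanks that are not printed.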

Sequence	ETS1 binding intensity
GATGCAAAAAGCATCCGCCCCGGAACCGGTTACCAG	3630
GGGCGCTCCCGGGCTTCCTTCCTGCTCCCCTGGGTC	2060
CAGGGCACACTTCCTCTCTCTCAGGATGCCCACAGA	12900
TGGTGAAGGATGTAAGTGACCTAAAGGAAGTGCATA	264
GGGGGTATCCGCCTCTCGGGTAAGTCCGGAATCGGC	2010
GTTTGAGTGCAGGAAAAGACAGGATGTGGTTACATA	2010
ATTTTGTAACCTTCCGCTCAGTTTCCGGTAACCGCC	9850
AAGTCAGGGGAATTTCCTGAGGAAATGGAGCCCTAG	1590
CACCACATCCTCTCTAGTACCTGTTGTTTCCTGACT	12500
CAGATTGCTCATTTCCCTCAGGAAATTTCATTCAGG	468
TCCCACGCTCCGGAAACCATTATTCCGCTTCATCCT	2380
AAAAAAGGAAGTGGTATTTTTTGTATTTCCTGCTTT	7320
ACTAGCGAGGCGGAAGTAAGGCGGAAGTACTGCCCT	8320
GGAGGGAAAAACAGGAAGCGGAAAGGCTGCGAACGC	5220
GCTTCGGAAGAGGCAGCAGGGCCTGGCCTTCCTGTC	202
CGCCGGAAGTGGTCGCGGGTCGTTCTGCTTCCTGCC	18000
GACAAGCCACATCCCTGTCACACATCCTGCGAAGGG	1900
GACCAGATAAAGGAAGTGCTGCTTCCTATGCCTGAG	3820

Sequence	ETS1 binding intensity
GCGCGGCTTCCGCGTGATGGACGCCCGGAAGCCGGC	3850
GCCCATCAGGAAACTCTTACAGTCAGGAAACTTAAG	274
GTGGACGCCACAGGAAAGAGAGGAAGCGCCTGAGAG	319
AGCGCAGCTTCCTCCGCCCACCACGGAAGTGAGGCG	3090
GCCTAGCACAACCGGAAAAGGAAGTGCCTCCGGCGC	7780
ACCCCCTTCCTGAAGGGGGCGATCTGCTTCCTGCTG	2970
GCTGCCGGAAGTCGCTCGACTTCTACTTCCGGTCCG	32600
CATGGCATCCTGGAGGTTGCGTTCTACTTCCTTGGA	2810
GGCACAGGATGTCGTCCCTCTCTGTGAGGAAGCCAC	5580
AGCCACTTCCTCCAGCGTGAGCAGCACTTCCTCCTG	17200
AATCACTTCCTCTCCAAGGGCTGCTGCTTCCTCTCC	26000
AGGGGTCCCCGGAACCCAGGCCCTTCCGGTCCGGCA	7320
TCAATTTCCGCTCACTGCAACCTTCACTTCCTGGGT	33300
AGAATGAGCTGCAGGAAGGCGGAAGCACTAGCGTGC	421
ATCAGCTGTTTCCTTTCACCTCCAGGAAGAGATAAC	2590
TAAGACCCATTTCCTGCCCTCTGGGAAGTCACAGAC	24100
CGAAAGGAAACGGACTAGGTTCTGAAACTTCCTGTT	2840

From the supplement of paper PMC10681739
